The other results are listed elsewhere or left out.
Key:
Test in all cases: glycan array binding signal (z-score within array); higher = stronger binding
Settings in all cases: glycan notation: IUPAC condensed, linker removed
[1] = molecular target: Gal(b1-4)GlcNAc(b1-3)Gal(b1-4)GlcNAc(b1-6)[Gal(b1-3)]GalNAc
How it was run: (§1)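 Glycan array data came from 3228 arrays in the Consortium for Functional Glycomics database, and only arrays with an available protein sequence were kept. Glycan names were put into IUPAC-condensed notation, and columns mapping to the same glycan were averaged. The binding signal is a within-array Z-score, averaged across arrays of one protein sequence run at different concentrations or buffers and across linkers. A negative Z-score can be read as non-binding.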

[2] = molecular target: Gal(b1-4)GlcNAc(b1-3)Gal(b1-4)[Fuc(a1-3)]GlcNAc(b1-3)Gal(b1-4)[Fuc(a1-3)]GlcNAc
How it was run: as §1

[3] = molecular target: Gal(b1-4)GlcNAc(b1-3)GalNAc
How it was run: as §1

[4] = molecular target: Gal(b1-4)GlcNAc(b1-3)[Fuc(a1-3)GlcNAc(b1-6)]Gal(b1-4)Glc
How it was run: as §1

[5] = molecular target: Gal(b1-4)GlcNAc(b1-3)[Gal(b1-4)GlcNAc(b1-6)]Gal(b1-4)GlcNAc
How it was run: as §1

[6] = molecular target: Gal(b1-4)GlcNAc(b1-3)[GlcNAc(b1-6)]Gal(b1-4)GlcNAc
How it was run: as §1

[7] = molecular target: Gal(b1-4)GlcNAc(b1-6)Gal(b1-4)GlcNAc
How it was run: as §1

[8] = molecular target: Gal(b1-4)GlcNAc(b1-6)GalNAc
How it was run: as §1

[9] = molecular target: Gal(b1-4)GlcNAc(b1-6)[Gal(b1-3)]GalNAc
How it was run: as §1

[10] = molecular target: Gal(b1-4)GlcNAc(b1-6)[Gal(b1-4)GlcNAc(b1-3)]GalNAc
How it was run: as §1

Gal(b1-4)GlcNAc6P = molecular target: Gal(b1-4)GlcNAc6P
How it was run: as §1

Gal(b1-6)Gal = molecular target: Gal(b1-6)Gal
How it was run: as §1

Gal3S(b1-3)GalNAc = molecular target: Gal3S(b1-3)GalNAc
How it was run: as §1

Gal3S(b1-3)GlcNAc = molecular target: Gal3S(b1-3)GlcNAc
How it was run: as §1

[11] = molecular target: Gal3S(b1-3)[Fuc(a1-4)]GlcNAc
How it was run: as §1

Gal3S(b1-4)Glc = molecular target: Gal3S(b1-4)Glc
How it was run: as §1

Gal3S(b1-4)Glc6S = molecular target: Gal3S(b1-4)Glc6S
How it was run: as §1

Gal3S(b1-4)GlcNAc = molecular target: Gal3S(b1-4)GlcNAc
How it was run: as §1

[12] = molecular target: Gal3S(b1-4)[Fuc(a1-3)]Glc6S
How it was run: as §1

[13] = molecular target: Gal3S(b1-4)[Fuc(a1-3)]GlcNAc
How it was run: as §1

[14] = molecular target: Gal3S(b1-4)[Fuc(a1-3)]GlcNAc6S
How it was run: as §1

Gal3S4S(b1-4)GlcNAc = molecular target: Gal3S4S(b1-4)GlcNAc
How it was run: as §1

Gal3S6S(b1-4)GlcNAc = molecular target: Gal3S6S(b1-4)GlcNAc
How it was run: as §1

Gal3S6S(b1-4)GlcNAc6S = molecular target: Gal3S6S(b1-4)GlcNAc6S
How it was run: as §1

Gal4S(b1-4)GlcNAc = molecular target: Gal4S(b1-4)GlcNAc
How it was run: as §1

Gal4S6S(b1-4)GlcNAc = molecular target: Gal4S6S(b1-4)GlcNAc
How it was run: as §1

Gal6P(b1-4)GlcNAc = molecular target: Gal6P(b1-4)GlcNAc
How it was run: as §1

Gal6S(b1-3)GlcNAc = molecular target: Gal6S(b1-3)GlcNAc
How it was run: as §1

Gal6S(b1-3)GlcNAc6S = molecular target: Gal6S(b1-3)GlcNAc6S
How it was run: as §1

Gal6S(b1-4)Glc = molecular target: Gal6S(b1-4)Glc
How it was run: as §1

Gal6S(b1-4)Glc6S = molecular target: Gal6S(b1-4)Glc6S
How it was run: as §1

Gal6S(b1-4)GlcNAc = molecular target: Gal6S(b1-4)GlcNAc
How it was run: as §1

Gal6S(b1-4)GlcNAc6S = molecular target: Gal6S(b1-4)GlcNAc6S
How it was run: as §1

GalNAc(a1-3)Gal = molecular target: GalNAc(a1-3)Gal
How it was run: as §1

GalNAc(a1-3)GalNAc = molecular target: GalNAc(a1-3)GalNAc
How it was run: as §1

[15] = molecular target: GalNAc(a1-3)GalNAc(b1-3)Gal(a1-4)Gal(b1-4)Glc
How it was run: as §1

[16] = molecular target: GalNAc(a1-3)GalNAc(b1-3)Gal(a1-4)Gal(b1-4)GlcNAc
How it was run: as §1

GalNAc(b1-3)Gal = molecular target: GalNAc(b1-3)Gal
How it was run: as §1

[17] = molecular target: GalNAc(b1-3)Gal(a1-4)Gal(b1-4)GlcNAc
How it was run: as §1

[18] = molecular target: GalNAc(b1-3)Gal(a1-4)Gal(b1-4)GlcNAc(b1-3)Gal(b1-4)Glc
How it was run: as §1

[19] = molecular target: GalNAc(b1-3)Gal(a1-6)Gal(b1-4)Glc
How it was run: as §1

GalNAc(b1-3)GalNAc = molecular target: GalNAc(b1-3)GalNAc
How it was run: as §1

GalNAc(b1-3)GlcNAc = molecular target: GalNAc(b1-3)GlcNAc
How it was run: as §1

GalNAc(b1-4)Gal(b1-4)Glc = molecular target: GalNAc(b1-4)Gal(b1-4)Glc
How it was run: as §1

GalNAc(b1-4)GlcNAc = molecular target: GalNAc(b1-4)GlcNAc
How it was run: as §1

B1: SP16664D-bth-476-27-476 (Bacteroides thetaiotaomicron) (protein)
chain: DDLEVGKNIDESAYSGIYENNAYLRDGKSNLVSKVVELHGETYATTVKMGLSKTPNTATSAKVKIDAAYLETYNKAHNTDFALYPQDLVTFANEGILTVNANTKSAEVEMTIRAGEGLQEDKTYAIPVAISDQSSDITIKDEDAKHCIYLVKDMRNAGDAYKGEGVMQGYLFFEVNDVNPLNTLSFQLENGKLLWDVVVLFAANINYDAEAGRPRVQCNPNVQYLLDNNETLLQPLRRRGVKVLLGLLGNHDITGLAQLSEQGAKDFAREVAQYCKAYNLDGVNYDDEYSNSPDLSNPSLTNPSTAAAARLCYETKQAMPDKLVTVFDWGQMYGVATVDGVDAKEWIDIVVANYGSAAYPIGQMTKKQCSGISMEFNLGGGGSLSASKAQSMIDGGYGWFMGFAPSPAKYGSVFSRLQGGGEVLYGSNVAAPTIFYKKNDPTPYKYPDDL
glycan array binding signal (z-score) [1]: -0.029
glycan array binding signal (z-score) [2]: -0.138
glycan array binding signal (z-score) [3]: 0.125
glycan array binding signal (z-score) [4]: -0.118
glycan array binding signal (z-score) [5]: 0.24
glycan array binding signal (z-score) [6]: 0.333
glycan array binding signal (z-score) [7]: -0.084
glycan array binding signal (z-score) [8]: -0.123
glycan array binding signal (z-score) [9]: -0.033
glycan array binding signal (z-score) [10]: -0.014
glycan array binding signal (z-score) (Gal(b1-4)GlcNAc6P): -0.159
glycan array binding signal (z-score) (Gal(b1-6)Gal): 0.145
glycan array binding signal (z-score) (Gal3S(b1-3)GalNAc): -0.141
glycan array binding signal (z-score) (Gal3S(b1-3)GlcNAc): -0.167
glycan array binding signal (z-score) [11]: -0.115
glycan array binding signal (z-score) (Gal3S(b1-4)Glc): -0.151
glycan array binding signal (z-score) (Gal3S(b1-4)Glc6S): -0.128
glycan array binding signal (z-score) (Gal3S(b1-4)GlcNAc): -0.248
glycan array binding signal (z-score) [12]: 0.397
glycan array binding signal (z-score) [13]: -0.185
glycan array binding signal (z-score) [14]: -0.156
glycan array binding signal (z-score) (Gal3S4S(b1-4)GlcNAc): -0.005
glycan array binding signal (z-score) (Gal3S6S(b1-4)GlcNAc): -0.231
glycan array binding signal (z-score) (Gal3S6S(b1-4)GlcNAc6S): -0.288
glycan array binding signal (z-score) (Gal4S(b1-4)GlcNAc): -0.258
glycan array binding signal (z-score) (Gal4S6S(b1-4)GlcNAc): -0.446
glycan array binding signal (z-score) (Gal6P(b1-4)GlcNAc): -0.186
glycan array binding signal (z-score) (Gal6S(b1-3)GlcNAc): 0.158
glycan array binding signal (z-score) (Gal6S(b1-3)GlcNAc6S): 0.053
glycan array binding signal (z-score) (Gal6S(b1-4)Glc): 0.046
glycan array binding signal (z-score) (Gal6S(b1-4)Glc6S): 0.344
glycan array binding signal (z-score) (Gal6S(b1-4)GlcNAc): 0.594
glycan array binding signal (z-score) (Gal6S(b1-4)GlcNAc6S): -0.222
glycan array binding signal (z-score) (GalNAc(a1-3)Gal): 0.077
glycan array binding signal (z-score) (GalNAc(a1-3)GalNAc): 0.083
glycan array binding signal (z-score) [15]: -0.045
glycan array binding signal (z-score) [16]: -0.244
glycan array binding signal (z-score) (GalNAc(b1-3)Gal): -0.159
glycan array binding signal (z-score) [17]: -0.112
glycan array binding signal (z-score) [18]: 0.373
glycan array binding signal (z-score) [19]: 0.115
glycan array binding signal (z-score) (GalNAc(b1-3)GalNAc): -0.012
glycan array binding signal (z-score) (GalNAc(b1-3)GlcNAc): 0.226
glycan array binding signal (z-score) (GalNAc(b1-4)Gal(b1-4)Glc): -0.229
glycan array binding signal (z-score) (GalNAc(b1-4)GlcNAc): -0.075

— the supplement of paper PMC8728848
